Results taken from PubChem BioAssay AID1345083 (National Center for Advancing Translational Sciences (NCATS), 2018).
The whole screen tested about 94,000 compounds, of which about 6,200 (6.6%) were called active. The shares of active, inactive and inconclusive entries below differ from those in the screen. Calls follow the shape of the dose curve; as a rule, active = well fitted inhibition curve with a large enough effect; inconclusive = small, poorly fitted or top-dose-only effect; inactive = flat fitted curve, though single readings scatter. A potency beside an inconclusive call is a rough fit, not a confirmed value.

experiment: Cytotoxic Profiling in HEK 293 Cell Line of Diverse Libraries Using Quantitative High-Throughput Screening; details: HEK 293 viability, ATP luminescence (CellTiter-Glo), 48-72 h; activity change, negative = cytotoxicity: at 115 µM (top of the series) unless noted; series mostly up to 115 µM; also: nearly all actives have a fitted effect of over 60% in size
Summary of the method: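 Viability of HEK 293 cells, plated at 250 cells/well, was judged by cellular ATP after compound treatment for 48 or 72 hr. Luminescence was imaged 10 min after CellTiter-Glo addition at room temperature.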
% is scaled to controls: 0 for no effect and ±100 for the full control effect; potency is read from the fitted curve at half-maximal effect; tags tell the direction and shape of the fitted curve.

Structure (SMILES) | Potency | activity change, negative = cytotoxicity | outcome
Cc1ccc(-n2cccc2CC(=O)N(C)Cc2ccco2)cc1 | inconclusive: 79.4 µM [inhibitor, partial curve] | – | –
CCn1cc(CN2CCOc3ccc(C(=O)NCc4ccccc4F)cc3C2)cn1 | – | inactive: -22% | –
CC1=C[C@@H](CNc2ccccn2)[C@H](C(C)C)C[C@H]1Cc1nnc(-c2ccc(C)cc2)o1 | active: 35.5 µM | – | –
Cc1ccccc1Oc1c(CCC(=O)N2CCSCC2)c(C)nn1-c1ccccc1C | inconclusive: 50.1 µM [inhibitor, partial curve, poor fit] | – | –
CCC(c1ccccc1)N1Cc2cc(NS(=O)(=O)c3ccc(F)cc3)ccc2OC(C)C1=O (centres undefined) | inconclusive: 56.2 µM [inhibitor, partial curve, poor fit] | – | –
O=C(Cc1ccc(F)cc1)NC1CCN(c2ccnc3ccnn23)CC1 | inconclusive: 89.1 µM [inhibitor, partial curve, poor fit] | – | –
CSCCNC(=O)C1CCN(c2nc3ncccc3o2)CC1 | – | inactive: -1.46% [at 172 µM] | –
CCOC(=O)CCCOc1cccn2c(=O)c(-c3cc(C)n(-c4ccccc4)n3)c(C)nc12 | – | – | inactive
COCCNc1cc(-c2cc(C(F)(F)F)ccn2)c2cc[nH]c2n1 | inconclusive: 89.1 µM [inhibitor, single point] | – | –
CC(C)c1nc2c(c(-c3ccc(O)cc3)n1)CN(CC1CC1)CC2 | inconclusive: 70.8 µM [inhibitor, partial curve, poor fit] | – | –
O=C(c1cccc(Cl)c1)N1CCN(C(=O)c2nnn3c2COC(c2ccccc2)C3)CC1 (centres undefined) | inconclusive: 50.1 µM [inhibitor, partial curve, poor fit] | – | –
O=C(Nc1cccnc1)c1cc(-c2ccccc2F)cc2c1OCCN2Cc1cccnc1 | inconclusive: 70.8 µM [inhibitor, full curve, poor fit] | – | –
O=C(O)C1(Cc2ccccc2F)CCCN(c2ncnc3sccc23)C1 (centres undefined) | inconclusive: 50.1 µM [inhibitor, partial curve, poor fit] | – | –
O=C1CCN(CC(O)COc2ccccc2)c2cc3c(cc2CN1CC1CC1)OCO3 (centres undefined) | inconclusive: 89.1 µM [inhibitor, single point] | – | –
COc1ccc(-n2cc(-c3ccnc(NCCC4CCCN4C)n3)cn2)cc1 (centres undefined) | inconclusive: 22.4 µM [inhibitor, full curve, poor fit] | – | –
CCOCCNC(=O)c1cc(-c2ccc(Cl)cc2Cl)nc2c1cnn2C | inconclusive: 50.1 µM [inhibitor, partial curve, poor fit] | – | –
COc1ccc(-c2noc(CC3CCN(C(=O)c4cc(OC)c(OC)c(OC)c4)CC3)n2)cc1 | inconclusive: 44.7 µM [inhibitor, partial curve, poor fit] | – | –
O=C(c1ccc(Cl)cc1)N1CCOCC12CCN(CCc1ccccc1)CC2 | inconclusive: 112 µM [inhibitor, partial curve, poor fit] | – | –
CCc1ccccc1-n1nc(-c2c(C)nc3scc(CC(=O)NCCC(C)C)n3c2=O)cc1C | inconclusive: 79.4 µM [inhibitor, partial curve, poor fit] | – | –
O=C(NCc1cccnc1)[C@@H]1C[C@H](c2ccc(F)cc2)N(Cc2ccccc2Cl)C1 | inconclusive: 100 µM [inhibitor, partial curve, poor fit] | – | –
O=C(c1ccc(C(F)(F)F)cc1)N1CCC2(CC1)CN[S+](=O)([O-])c1ccccc1N2 | – | inactive: -2.14% | –
COc1ccc(CN2CCc3ncc(C(=O)NCc4cccc(Cl)c4)n3CC2)cn1 | inconclusive: 100 µM [inhibitor, partial curve] | – | –

Structure (SMILES) | Potency | activity change, negative = cytotoxicity | outcome
O=C(O)c1ccc(CC2CCN(C(=O)c3cccc(-n4cccn4)c3)C2)cc1 (centres undefined) | – | inactive: 3.74% | –
O=C(CCC1CCCN(S(=O)(=O)c2ccccc2F)C1)NC1CCCCC1 (centres undefined) | active: 31.6 µM | – | –
C#CCNC(=O)c1cn2cc(-c3ccccc3)sc2n1 | inconclusive: 89.1 µM [inhibitor, partial curve] | – | –
O=C(COc1ccccc1)NCCC1CCN(C(=O)Nc2ccccc2)CC1 | – | inactive: 6.73% | –
Cn1cc(-c2cnc3[nH]cc(CC(=O)Nc4ccc(N5CCOCC5)cc4)c3c2)cn1 | inconclusive: 79.4 µM [inhibitor, partial curve] | – | –
COc1ccccc1CNC(=O)C1Cn2cccc2C(=O)N1CC(C)C (centres undefined) | – | inactive: -0.875% | –
COc1ccc(C(=O)N2CCC[C@@H]2C(=O)N2CCC(N3CCOC3=O)CC2)cc1 | – | inactive: 0.625% | –
COc1cccc(-c2cc3c(=O)n(CCNC(=O)c4ccc(C)cc4)ccn3n2)c1 | inconclusive: 11.2 µM [inhibitor, full curve, poor fit] | – | –
COc1ccc(Cn2ccn3nc4c(c3c2=O)CCCC4)cc1F | active: 39.8 µM | – | –
COc1ccc(Cn2nc(C3CC3)nc2-c2c(F)cccc2Cl)cc1 | inconclusive: 63.1 µM [inhibitor, partial curve, poor fit] | – | –
COc1ccc(CN2CCc3nc(C(=O)NCc4ccncc4)oc3CC2)cc1 | inconclusive: 44.7 µM [inhibitor, full curve, poor fit] | – | –
CN1C(=O)[C@@H]2C[C@@H](CN2C(=O)c2ccc3c(c2)OCO3)Oc2ccccc21 | – | inactive: 0.785% [at 172 µM] | –
CN1CCN(C(=O)c2ccc(-c3ccc(N4CCCCC4)nc3)cc2)CC1 | inconclusive: 79.4 µM [inhibitor, partial curve] | – | –
CCNC(=O)c1coc(COc2ccc3c(c2)C(c2ccc(F)cc2)N(C(=O)CC(C)C)CC3)n1 (centres undefined) | inconclusive: 79.4 µM [inhibitor, partial curve, poor fit] | – | –
Cc1ccc(OCC(=O)c2ccc3c(c2)N(CCCC(=O)NC2CCCCC2)C(=O)CO3)cc1C | inconclusive: 44.7 µM [inhibitor, partial curve] | – | –
CC(C)NC(=O)N1CCn2c(nnc2C2CCCN2)C1 (centres undefined) | – | – | inactive [at 172 µM]
COc1ccc(Nc2ccnc(N3CCN(C(=O)c4ccccc4F)CC3)n2)cc1 | inconclusive: 39.8 µM [inhibitor, full curve, poor fit] | – | –
CC(O)CN1CC2(CCC1=O)CCN(C(=O)c1ccnn1C)CC2 (centres undefined) | – | inactive: -17.6% | –
COc1cccc(CNC(=O)c2c(C)noc2-c2ccccc2OC)c1 | – | inactive: -9.22% | –
CCN1CCN(c2ncnc3c2CN(C2CCCCC2)C(=O)CN3C)CC1 | – | inactive: 1.79% | –
CC(C)(C)C1CCC2(CC1)NC(=O)N(CC(=O)N1CCCCC1)C2=O (centres undefined) | inconclusive: 3.16 µM [inhibitor, full curve, poor fit] | – | –
CCCN1CCCC12Cc1ccccc1CN(C(C)=O)C2 (centres undefined) | inconclusive: 112 µM [inhibitor, partial curve, poor fit] | – | –

Structure (SMILES) | Potency | activity change, negative = cytotoxicity | outcome
CC(C)CNc1ccc2c(n1)C(C)(C(=O)NCc1ccco1)CN(Cc1ccccc1)C2 (centres undefined) | active: 50.1 µM | – | –
Cc1ccccc1N1Cc2c(NCCc3ccc(Cl)cc3)ncnc2N(C)CC1=O | inconclusive: 25.1 µM [inhibitor, full curve] | – | –
CCS(=O)(=O)N1C[C@@H](C(=O)NCc2ccc(C(C)C)cc2)[C@H](c2ccncc2)C1 | inconclusive: 79.4 µM [inhibitor, partial curve, poor fit] | – | –
COc1cccc(CN2CC[C@H](c3nc4cc(Cl)ccc4o3)C2)c1 | inconclusive: 79.4 µM [inhibitor, partial curve, poor fit] | – | –
CCN(CC)C1CCOC2(CCN(C(=O)c3sc(C)nc3C)CC2)C1 (centres undefined) | – | inactive: 0.711% | –
N#Cc1cccc(C(=O)N2CCC3(CC2)NC(=O)N(Cc2ccc(F)cc2)C3=O)c1 | inconclusive: 79.4 µM [inhibitor, partial curve] | – | –
CCc1nc2c(c(-c3ccc(O)cc3)n1)CCN(Cc1ccccc1C(F)(F)F)CC2 | inconclusive: 50.1 µM [inhibitor, partial curve, poor fit] | – | –
CCOC1CCOC2(CCN(C(=O)c3ccccc3)CC2)C1 (centres undefined) | – | inactive: -21.8% | –
COc1ccc(CN2CCOc3nc(-c4cccc(C(F)(F)F)c4)ncc3C2=O)cc1 | inconclusive: 35.5 µM [inhibitor, full curve, poor fit] | – | –
CCN1C(=O)C2(CCN(S(=O)(=O)c3cc(F)ccc3OC)CC2)c2ccccc21 | inconclusive: 44.7 µM [inhibitor, partial curve, poor fit] | – | –
CCc1ccc(N2CC(c3noc(-c4ccccc4)n3)CC2=O)cc1 (centres undefined) | active: 79.4 µM | – | –
Cc1ncsc1C(=O)N1CCCC(C)(Cc2ccc3c(c2)OCO3)C1 (centres undefined) | inconclusive: 44.7 µM [inhibitor, partial curve, poor fit] | – | –
COc1ccc(-c2nn(-c3ccccc3C)cc2CN2CCCOCC2)cc1F | inconclusive: 50.1 µM [inhibitor, partial curve, poor fit] | – | –
CCc1nc2c(NC(=O)Nc3cccc(C(=O)OC)c3)cccn2n1 | inconclusive: 31.6 µM [inhibitor, partial curve, poor fit] | – | –
COc1cccc(CNC[C@H]2O[C@H](Cc3cc(-c4ccccn4)on3)CC[C@@H]2O)c1 | – | inactive: -4.65% [at 172 µM] | –
O=C(Nc1cccnc1)c1nc2c(o1)CCN(CCCc1ccccc1)CC2 | inconclusive: 100 µM [inhibitor, partial curve, poor fit] | – | –
Cc1cn2nc(C(=O)NCCC3=CCCCC3)cc2c(N2CCCC2)n1 | – | inactive: -22% | –
Cc1cc(CNC(=O)c2cc(-c3cccnc3)cc3c2OCCN3C)no1 | inconclusive: 100 µM [inhibitor, partial curve, poor fit] | – | –
COc1ccc(-c2cc(-c3cccc4[nH]ncc34)cn3cncc23)cn1 | inconclusive: 112 µM [inhibitor, partial curve, poor fit] | – | –
Cc1nn(-c2ccc(C(C)(C)C)cc2)c(C)c1[C@@H]1C=C[C@@H](NC(=O)CC2(CC(=O)O)CCCC2)C1 | – | inactive: -8.92% | –
